The results in this text go back to PubChem BioAssay AID1240 (Sanford-Burnham Center for Chemical Genomics, 2008).

SMILES strings stand for the structures. Values joined by “and” are separate entries in the source; they are usually repeats but may differ in a detail not shown here. Identical values can stand only once. In all, about 50,000 compounds went through this assay and about 800 (1.6%) showed an effect of 50% or more. This is one part of the list.

This assay concerns the target Bcl-2-like protein 10 (Homo sapiens) (UniProt Q9HD36). Briefly: Phenotype converters, Bcl-B/TR3 peptide binding displacement, primary biochemical FP (AID 1240).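 Also: 0% = Bcl-B with tracer peptide and DMSO and 100% = tracer peptide lacking Bcl-B.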 Particulars: GST-Bcl-B / FITC-TR3 peptide fluorescence polarization; stronger effect = higher value; compound at 3.75 mg/L. In general terms: In fluorescence polarisation assays a small probe gives low polarisation when free and higher when bound to something large.
UniProt Q9HD36, sequence (Q9HD36 whole entry, looked up): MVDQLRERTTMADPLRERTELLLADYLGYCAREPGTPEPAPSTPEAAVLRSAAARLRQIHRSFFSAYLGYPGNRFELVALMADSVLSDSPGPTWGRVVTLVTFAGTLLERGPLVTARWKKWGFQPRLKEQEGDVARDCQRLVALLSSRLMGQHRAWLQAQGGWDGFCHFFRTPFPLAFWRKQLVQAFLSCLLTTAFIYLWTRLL
On to `COC(=O)c1sc2nccc(N(C)C)c2c1N`, for which the displacement is -9.2%.
Under `O=C(Nc1cc(Cl)cc(Cl)c1)c1ccc(S(=O)(=O)N2CCCCC2)cc1` stands 8.2%; under `O=S(=O)(CCSc1ccc(Cl)cc1)OCC(F)(F)F`, 16.4%.
Under `CCOC(=O)c1csc(NC(=O)c2ccc(-c3ccccc3)cc2)n1` stands 9.4%; under `O=C(NCCN1CCOCC1)c1cnn2c1NC(c1cccs1)CC2C(F)(F)F` (stereo unspecified), -1.7%.
Under `CC(=O)N1C(=O)NC2CC1NC(=O)N2C(C)=O` stands 13.5%.
`OC1(c2ccccc2)c2ccccc2-c2ncccc21` (stereo unspecified): the displacement turned out to be 16.8%.
Under `COc1cc(C(=O)N2c3ccccc3CC2C)cc(OC)c1OC` (stereo unspecified) stands 10.3%.
Next, `C(=C(\c1ccccc1)c1nc2ccccc2[nH]1)/c1ccco1`: 2.2%.
Under `CCOc1ccc(C(=O)Nc2ccc(OC)cc2OC)cc1OCC` stands 3%; under `O=C(c1ccncc1)N1CCN(Cc2ccc(F)cc2)CC1`, -5%; under `Cc1ccc(NC(=O)CC(C(=O)O)C2CCCO2)cc1` (stereo unspecified), -7.5%.
Consider `c1ccc(OCCCN2CCCCC2)cc1`, for which the displacement was -7.2%.
Regarding `O=C(Nc1ccc(Br)cc1)c1ccccc1C(F)(F)F`, the displacement was 23.2%.
Next, `O=[N+]([O-])c1ccc(Sc2c(-c3ccccc3)nc3sccn23)cc1`: 1.4%; `CCOc1cc(C(=S)N2CCOCC2)cc(Br)c1O`: 11%.
Next, `Cc1ccc(OCc2nnc(NC(=O)c3ccccc3C)s2)c(C)c1`: -0.9%; `COc1ccc(/C=N/N=C2/SC(CC(=O)O)C(=O)N2c2ccc(O)cc2)cc1` (stereo unspecified): 6%.
Next, `Cc1ccc(S(=O)(=O)N/N=C/c2c(Cl)cccc2Cl)cc1[N+](=O)[O-]`: 9.2%; `O=C(CC(c1ccccc1)c1ccccc1O)N1CCNCC1` (stereo unspecified): -5.3%; `C=CCN1C(=O)/C(=C\c2ccccc2I)C(=O)NC1=S`: -3.2%.
Take `CCNC(=O)CC1S/C(=N\N=C(C)C)NC1=O` (stereo unspecified): the displacement was -24.4%.
`CC1(C)CC(=O)C2=C(C1)NC1=C(C(=O)CC(C)(C)C1)C2c1c(Cl)cccc1Cl`: the displacement was 10%.
Next, `CCOC(=O)NC(NC(=S)Nc1ccccc1I)C(Cl)(Cl)Cl` (stereo unspecified): -7.6%; `O=C(COc1ccccc1)NCC1CCCO1` (stereo unspecified): 4.6%.
Take `O=C(O[C@H]1CCN(C(=O)c2ccccc2)[C@@H]2CCCC[C@H]12)c1ccccc1`: the displacement is -3%.
Next, `O=C1CC(Nc2ccc(N3CCOCC3)cc2)C(=O)N1c1cccc(Cl)c1` (stereo unspecified): 1.4%; `COc1cc(Nc2cc(C)c(C#N)c3nc4ccccc4n23)cc(OC)c1OC`: 4.6%; `Cc1nn(C(=O)c2ccccc2)c(C)c1Sc1ccc([N+](=O)[O-])cc1`: 2.4%.
Next, `CCOc1cc(C(=O)NCC2CCCO2)cc(OCC)c1OCC` (stereo unspecified): 0.4%.
Next, `Cc1cc(/C=C2/NC(=S)NC2=O)c(C)n1-c1cccnc1`: -12.2%; `O=C(c1ccccc1)c1ccc(C(=O)N2CCN(C(=O)c3ccc(C(=O)c4ccccc4)cc3)CC2)cc1`: 6.7%; `COc1ccc(CN2CCN(S(C)(=O)=O)CC2)cc1Br`: -11.8%.
In the case of `O=C(Nc1ccc(Oc2ccc(NC(=O)c3ccco3)cc2)cc1)c1ccco1`, the displacement stood at 3.5%.
Next, `CCOCCOC(=O)C1=C(C)NC(=O)NC1c1ccc(O)cc1` (stereo unspecified): -2.1%.
Take `O=C1NC(=S)N/C1=C/c1cc(Br)c(O)c(I)c1`: the displacement is -87.1%.
Under `CCOC(=O)c1sc2c(c1NC(=O)c1ccc3c(c1)OCCO3)CCCC2` stands -3.8%; under `COc1ccc(/C(C)=N/n2cnnc2)cc1`, 13.8%; under `COc1ccc2ccccc2c1C1NC(=O)NC(C)=C1C(=O)Nc1cc(Cl)ccc1C` (stereo unspecified), 14%.
Next, `COC(=O)c1ccc(/C=C/C(=O)c2cccc(OC)c2)cc1`: 2.4%; `CC(=O)c1ccc2c(c1)C1C=CCC1C(c1ccc([N+](=O)[O-])cc1)N2` (stereo unspecified): 11.3%; `CCOc1ccccc1C(=O)Nc1cc(C)ccn1`: 8.1%.
Next, `Cc1cc2nc(Nc3nc4ccccc4c(=O)[nH]3)nc(C)c2cc1C`: 5.6%; `CCOc1ccc(/C=C2/SC(NC(C)=O)=NC2=O)cc1OCC`: 54.6%.
`O=C1C2ON(c3ccccc3)C(c3ccc(OC(F)F)cc3)C2C(=O)N1c1ccccc1C(F)(F)F` (stereo unspecified): the displacement was 3.9%.
Under `COc1cc([N+](=O)[O-])ccc1NC(=O)COc1cc(C)ccc1C(C)(C)C` stands 4.4%; under `CC1=NN(C(=O)C(C)C)C(O)(c2ccc(Br)cc2)C1` (stereo unspecified), 7.4%.
For the molecule `COc1ccc(N/C=C(/C2=CC(=O)C=CC2=O)[N+](=O)[O-])cc1`, the displacement worked out at 16.6%.
Next, `COc1ccccc1NC(=O)C(=O)N/N=C/c1cccc(OC)c1OC`: 4.8%.
Under `O=C(NC12CC3CC(CC(C3)C1)C2)c1cc2ccccc2o1` stands -1.3%.
Consider `CCCCOc1ccc(C(=O)Nc2cccc(NC(=O)c3ccccc3Cl)c2)cc1`, for which the displacement amounted to 7.1%.
Next, `O=C(O)CCC(=O)Nc1sc2c(c1C(=O)Nc1ccc(Cl)cc1)CCCCC2`: 20%.
Next, `O=C(c1cccc(F)c1)N1CCN(c2ccc([N+](=O)[O-])cc2)CC1`: 118%; `O=C(Cc1cccs1)NCc1cccnc1`: 11.7%; `COc1ccc(-c2cc(C(=O)Nc3nc4ccc(S(C)(=O)=O)cc4s3)c3ccccc3n2)cc1OC`: 5%.
Next, `CN(C1=NS(=O)(=O)c2cc([N+](=O)[O-])ccc21)c1ccccc1`: 7.9%.
In the case of `COc1ccccc1N1CCN(C(=O)c2ccc(N(C)C)cc2)CC1`, the displacement came out at 12.4%.
Under `Cc1cccc(NC(=O)/C=C(\C(=O)O)c2ccc(Cl)cc2)c1C` stands 6%; under `Cc1ccc(C(=O)Nc2ccc(C(=O)O)cc2)cc1S(=O)(=O)NC1CCCCC1`, -11.1%.
Under `CCOC(=O)c1[nH]c2c([N+](=O)[O-])cc(C)cc2c1C` stands 10.6%; under `Cc1cc(Cl)cc(C)c1OCCCCCCn1ccnc1`, 6.8%; under `CCOC(=O)C1CCN(C(=O)COc2ccc3ccccc3c2)CC1`, 5.9%.
Consider `CCOC(=O)C1CCN(C(=O)Cc2ccccc2OC)CC1`, for which the displacement was -4%.
Under `COc1ccc(CCNS(=O)(=O)c2ccccc2[N+](=O)[O-])cc1` stands -9.9%.
Next, `CON1C(=O)CN(C(C)=O)C1c1ccc(Cl)cc1Cl` (stereo unspecified): 4.8%; `CCOC(=O)C1=C(C)N=c2s/c(=C\c3ccc4c(c3)OCO4)c(=O)n2C1c1ccc(F)cc1` (stereo unspecified): 29%.
Next, `COc1ccc(/C=C2\SC(=S)N(Nc3ccccc3)C2=O)cc1OC`: 7.1%; `COc1ccc(/C=c2/sc3nc(-c4ccc(C(C)(C)C)cc4)nn3c2=O)cc1`: 11.3%.
As to `COc1ccc(CCNC2CC(=O)N(CCc3ccccc3)C2=O)cc1` (stereo unspecified), the displacement was -3.1%.
Next, `COc1ccc(-c2n[nH]c(=S)o2)cc1`: 14.9% and -0.1%.
`CC(=O)c1c(C)oc2c1cc(OC(=O)c1ccco1)c1ccccc12`: the displacement was 18.6%.
